Measurements published in US11707062B2, “Formulation of stearyl alcohol” (PRO FARM GROUP, INC., priority 2017, dated 2023).

Tested on: almond
Experiment: Almond orchard field trial, yield
Conditions: trees treated three times with 6 ml/L

CCCCCCCCCCCCCCCCCCO [stearyl alcohol]
yield higher than Surround or untreated: around 15%
